# Data taken from PubChem BioAssay AID2675 (National Center for Advancing Translational Sciences (NCATS), 2010).
# Hit rate of the full screen: of about 280,000 compounds, about 100 (0.036%) were called active. Inconclusive means that the source gave no clear call. Such entries were picked first, then a sample of the others. Calls follow the shape of the dose curve; as a rule, active = well fitted inhibition curve with a large enough effect in the signal ratio, with a control signal flat (not every such curve was filed as active); inconclusive = small, poorly fitted or top-dose-only effect, or effect the other way, or a change in a side signal; inactive = no such curve, though single readings can be large or run the other way; the % refers to the signal ratio. A potency beside an inconclusive call is a rough fit, not a confirmed value. A note “side channel” means that the fit belongs to a control or component signal, not to the main read-out.
# Molecular target: Muscleblind-like protein 1 (Homo sapiens) (UniProt Q9NR56)
# Test: qHTS Assay for Inhibitors of MBNL1-poly(CUG) RNA binding
# Conditions: TR-FRET MBNL1-His/biotin-(CUG)12 binding, 665/545 ratio; activity change, negative = inhibition: at 57.5 µM (top of the series)
# Summary of the method: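 Inhibition of protein-RNA binding appears as loss of TR-FRET between terbium anti-His antibody on MBNL1-His and streptavidin-XL665 on biotin-(CUG)12. Activity is normalized to buffer-only and uninhibited-complex controls.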
# % is scaled to controls: 0 for no effect and ±100 for the full control effect; potency is read from the fitted curve at half-maximal effect; tags tell the direction and shape of the fitted curve or compound fluorescence and quenching.
# Chain of UniProt Q9NR56 (Q9NR56 whole entry, looked up): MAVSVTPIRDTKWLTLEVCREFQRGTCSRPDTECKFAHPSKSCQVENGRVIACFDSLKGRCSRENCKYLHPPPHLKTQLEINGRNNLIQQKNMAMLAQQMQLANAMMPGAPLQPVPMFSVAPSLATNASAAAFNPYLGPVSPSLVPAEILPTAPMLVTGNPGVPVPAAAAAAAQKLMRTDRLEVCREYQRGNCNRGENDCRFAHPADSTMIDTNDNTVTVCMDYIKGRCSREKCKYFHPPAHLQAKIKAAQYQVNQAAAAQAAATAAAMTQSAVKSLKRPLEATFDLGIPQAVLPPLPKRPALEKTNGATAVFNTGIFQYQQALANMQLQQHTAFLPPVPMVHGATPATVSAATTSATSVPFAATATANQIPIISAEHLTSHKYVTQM
SMILES,Potency,"activity change, negative = inhibition"
O=S(=O)(Cc1ccccc1)NCC1CCCN(Cc2ccc3nonc3c2)C1 (centres undefined),"inconclusive: 14.1 µM [quencher, side channel, partial curve]",–
CC(C)(C)C(=O)COC(=O)c1cc(-c2ccncc2)nc2ccccc12,"inconclusive: 17.8 µM [quencher, side channel, partial curve]",–
CCCCOC(=O)c1ccc(NC(=O)c2c(Cl)ccc(Cl)c2OC)cc1,inactive,–
O=C(O)CCCCCN1C(=O)c2ccc(C(=O)O)cc2C1=O,"inconclusive: 14.1 µM [quencher, side channel, partial curve]",–
O=C(Nc1ccc(Nc2ccncc2)cc1)c1ccc(Nc2ccnc3ccc([N+](=O)[O-])cc23)cc1[N+](=O)[O-],"inconclusive: 3.16 µM [quencher, side channel, partial curve]",–
C=CCNc1nnc(SCC(=O)N2CCCCC2)c2ccccc12,"inconclusive: 17.8 µM [quencher, side channel, single point]",–
Cc1cccc(NS(=O)(=O)c2ccc3[nH]c(=O)cc(C(=O)OC(C)C(=O)Nc4ccc([N+](=O)[O-])cc4)c3c2)c1 (centres undefined),"inconclusive: 22.4 µM [quencher, side channel, single point]",–
CCc1nc(N2CCOCC2)c(C#N)c2c1CCCC2,inactive,–
O=C(CCn1nnc2ccccc21)OCC(=O)c1ccc([N+](=O)[O-])cc1,"inconclusive: 3.98 µM [quencher, side channel, partial curve]",–
O=Cc1sc(=O)n(Cc2cccc(C(=O)O)c2)c1Cl,"inconclusive: 15.8 µM [quencher, side channel, partial curve]",–
Cc1ccc(/C(O)=C2\C(=O)C(=O)N(C)C2c2ccc([N+](=O)[O-])cc2)cc1 (centres undefined),"inconclusive: 31.6 µM [quencher, side channel, partial curve]",–
COc1ccc(C2(C(=O)NCCCN3CCOCC3)CCOCC2)cc1,inactive,–
CSc1cc(-c2ccccc2)n(Cc2ccc(Cl)cc2Cl)c(=O)c1C#N,inactive,–
COc1cc([N+](=O)[O-])ccc1NC(=O)NCc1cccnc1,"inconclusive: 25.1 µM [quencher, side channel, single point]",–
CNC(=O)COc1ccc(Nc2nnc(-c3ccc(C)c(S(N)(=O)=O)c3)c3ccccc23)cc1,"inconclusive: 17.8 µM [quencher, partial curve]",–
COCCn1c(=NC(=O)c2sc3ccccc3c2Cl)sc2cc(S(N)(=O)=O)ccc21,inactive,–
O=C(O)c1ccc(Nc2cccc(F)c2)c([N+](=O)[O-])c1,"inconclusive: 15.8 µM [quencher, side channel, partial curve]",–
CC(C)c1ccc(C2C(C#N)=C(N)N3C(=C2C#N)Sc2ccccc23)cc1 (centres undefined),inactive,–
O=C(NC(Nc1nc2ccc([N+](=O)[O-])cc2s1)(C(F)(F)F)C(F)(F)F)c1ccccc1,"inconclusive: 12.6 µM [quencher, side channel, partial curve]",–
CCC(CC)c1nnc(NC(=O)CN2C(=O)NC3(CCCC3)C2=O)s1,inactive,–

SMILES,Potency,"activity change, negative = inhibition"
NC(=S)NNC(=O)C12CC3CC(CC(C3)C1)C2,inactive,–
O=C(CCCN1C(=O)c2cccc3cccc(c23)C1=O)NCCN1CCOCC1,"inconclusive: 12.6 µM [quencher, side channel, partial curve]",–
COc1ccc(N2C(=O)c3ccc(C(=O)Nc4ccccc4OC)cc3C2=O)cc1,"inconclusive: 1.78 µM [quencher, side channel, full curve, poor fit]",–
CCOc1ccc(-c2c(C(=O)N/N=C/c3cccs3)nnn2-c2nonc2N)cc1,"inconclusive: 28.2 µM [quencher, side channel, single point]",–
COc1cc(-c2nc3cnccn3c2Nc2ccccc2)ccc1O,–,inconclusive: 18.8% [phenotype inactive]
O=C(N/N=C/C(Cl)=C\c1ccccc1)c1ccco1,"inconclusive: 20 µM [quencher, side channel, single point]",–
O=C(CN1C(=O)/C(=C/c2ccco2)SC1=S)Nc1ccc(O)c(C(=O)O)c1,"inconclusive: 15.8 µM [quencher, side channel, partial curve]",–
O=C(CCCCCCN1C(=O)c2ccccc2C1=O)N1CCC(c2ccccc2)C1 (centres undefined),"inconclusive: 3.98 µM [quencher, side channel, single point]",–
Cc1onc(-c2ccccc2)c1C(=O)N/N=C/c1cc(Br)c(O)c(Br)c1,"inconclusive: 25.1 µM [quencher, side channel, single point]",–
COc1ccc(S(=O)(=O)N(C)c2ccc(C(=O)N3CCC(C(N)=O)CC3)cc2)cc1OC,inactive,–
O=C(NCC1CCCO1)c1ccccc1S(=O)(=O)c1ccc([N+](=O)[O-])cc1 (centres undefined),"inconclusive: 7.08 µM [quencher, side channel, partial curve]",–
CCn1c(=N)c(C(=O)NCCCOC)cc2c(=O)n3cccc(C)c3nc21,"inconclusive: 14.1 µM [quencher, side channel, partial curve]",–
O=C(O)c1ccc(-c2nnc(-c3ccc([N+](=O)[O-])cc3)o2)cc1,"inconclusive: 14.1 µM [quencher, partial curve]",–
CC(=O)c1cnc(-c2ccccc2)s1,"inconclusive: 15.8 µM [quencher, side channel, partial curve]",–
Cc1cc(=O)oc(C)c1C(=O)NCCC(C)C,"inconclusive: 35.5 µM [quencher, side channel, single point]",–
O=[N+]([O-])c1cccc(Nc2c([N+](=O)[O-])ccc3nonc23)c1,"inconclusive: 3.55 µM [quencher, side channel, partial curve]",–
O=C(CSc1ccsc1[N+](=O)[O-])NCc1ccccc1,"inconclusive: 14.1 µM [quencher, partial curve]",–
COC/C=C/C1=CC2=CC(=O)C(C)(OC(=O)c3cnc4ccccc4n3)C(=O)C2=CN1Cc1ccccc1 (centres undefined),"inconclusive: 15.8 µM [quencher, side channel, partial curve]",–
CC(/C=N/NC(=O)c1ccccc1F)=C\c1ccccc1,"inconclusive: 20 µM [quencher, side channel, partial curve]",–
NS(=O)(=O)c1ccc(CCNC(=O)c2ccc([N+](=O)[O-])s2)cc1,"inconclusive: 11.2 µM [quencher, side channel, partial curve]",–

SMILES,Potency,"activity change, negative = inhibition"
O=C(CSc1nnc(CCCN2C(=O)c3cccc4cccc(c34)C2=O)n1-c1ccccc1)N1CCN(CCO)CC1,"inconclusive: 12.6 µM [quencher, side channel, partial curve]",–
COc1cc(NC(=S)N2CCN(C/C=C/c3ccccc3)CC2)cc(OC)c1,"inconclusive: 31.6 µM [fluorescent, side channel, partial curve, poor fit]",–
CC(Sc1ccc([N+](=O)[O-])cn1)C(=O)Nc1nccs1 (centres undefined),"inconclusive: 14.1 µM [quencher, side channel, partial curve]",–
COc1ccc(-c2nnc3ccc(SCC(=O)NCc4ccco4)nn23)cc1,"inconclusive: 14.1 µM [quencher, side channel, partial curve]",–
CC(C)(C)N(Cc1ccccc1)C(=O)COc1cccnc1[N+](=O)[O-],"inconclusive: 8.91 µM [quencher, side channel, partial curve]",–
N#Cc1c(-c2ccco2)cc(-c2cccnc2)nc1N,"inconclusive: 15.8 µM [quencher, side channel, partial curve]",–
CC(OC(=O)/C=C/c1ccco1)C(=O)Nc1cccc([N+](=O)[O-])c1 (centres undefined),"inconclusive: 17.8 µM [quencher, side channel, single point]",–
Cc1ccc(OCC(=O)Nc2cccc(S(=O)(=O)N3CCCCC3)c2)c([N+](=O)[O-])n1,"inconclusive: 14.1 µM [quencher, side channel, partial curve]",–
O=C(C1=C[C@@H](c2csc3ccccc23)C[C@@H](OCc2ccc(CO)cc2)O1)N1CCN(Cc2ccccc2)CC1,inactive,–
COc1cccc(-c2csc(N3CCN(Cc4ccccc4)CC3)n2)c1,inactive,–
CC(=O)NNc1ccc(C(F)(F)F)cc1[N+](=O)[O-],"inconclusive: 14.1 µM [quencher, side channel, partial curve]",–
CC1=CC(C)(C)n2c(O)c(C3=NC(=S)NC3=O)c3cc(OC(=O)c4cccc5ccccc45)cc1c32,inactive,–
CC(C)N1CCC(N2CCN(Cc3ccc4nsnc4c3)CC2CCO)CC1 (centres undefined),"inconclusive: 14.1 µM [quencher, side channel, partial curve]",–
CN(C)/C=C1\N=C(c2ccc3c(c2)OCO3)OC1=O,"inconclusive: 28.2 µM [quencher, side channel, single point]",–
CC1=C(C(=O)Nc2ccc(F)cc2)C(c2cccc(C)c2)n2nc(CCCO)nc2N1 (centres undefined),"inconclusive: 39.8 µM [quencher, side channel, single point]",–
COc1ccc(/C=N/N=C2/C(=O)Nc3ccccc32)cc1O,"inconclusive: 11.2 µM [quencher, partial curve]",–
CC(=O)c1cccc(NC(=O)C(=O)Nc2cccc3ccccc23)c1,inactive,–
NC(=O)CSc1nc2scc(-c3ccco3)c2c(=O)n1-c1ccccc1,inactive,–
O=C(CCCN1C(=O)/C(=C/c2ccccc2Cl)SC1=S)Nc1cccnc1,"inconclusive: 11.2 µM [quencher, side channel, partial curve]",–
